Reference: publication PMC4336329 (PLoS ONE, 2015)
Screen size: about 310,000 compounds; about 14,000 (4.5%) showed an effect of 50% or more. Effects have a minus sign here. The list shows a part of the results.

Target: human ether-à-go-go-related gene (hERG) potassium channel (human, UniProt Q12809)
Assay: primary screen, population patch clamp on CHO cells stably expressing hERG
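Also: peak tail current of the secondary pulse compared with the same well before compound.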

Chain of human ether-à-go-go-related gene (hERG) potassium channel (Q12809 whole entry, looked up): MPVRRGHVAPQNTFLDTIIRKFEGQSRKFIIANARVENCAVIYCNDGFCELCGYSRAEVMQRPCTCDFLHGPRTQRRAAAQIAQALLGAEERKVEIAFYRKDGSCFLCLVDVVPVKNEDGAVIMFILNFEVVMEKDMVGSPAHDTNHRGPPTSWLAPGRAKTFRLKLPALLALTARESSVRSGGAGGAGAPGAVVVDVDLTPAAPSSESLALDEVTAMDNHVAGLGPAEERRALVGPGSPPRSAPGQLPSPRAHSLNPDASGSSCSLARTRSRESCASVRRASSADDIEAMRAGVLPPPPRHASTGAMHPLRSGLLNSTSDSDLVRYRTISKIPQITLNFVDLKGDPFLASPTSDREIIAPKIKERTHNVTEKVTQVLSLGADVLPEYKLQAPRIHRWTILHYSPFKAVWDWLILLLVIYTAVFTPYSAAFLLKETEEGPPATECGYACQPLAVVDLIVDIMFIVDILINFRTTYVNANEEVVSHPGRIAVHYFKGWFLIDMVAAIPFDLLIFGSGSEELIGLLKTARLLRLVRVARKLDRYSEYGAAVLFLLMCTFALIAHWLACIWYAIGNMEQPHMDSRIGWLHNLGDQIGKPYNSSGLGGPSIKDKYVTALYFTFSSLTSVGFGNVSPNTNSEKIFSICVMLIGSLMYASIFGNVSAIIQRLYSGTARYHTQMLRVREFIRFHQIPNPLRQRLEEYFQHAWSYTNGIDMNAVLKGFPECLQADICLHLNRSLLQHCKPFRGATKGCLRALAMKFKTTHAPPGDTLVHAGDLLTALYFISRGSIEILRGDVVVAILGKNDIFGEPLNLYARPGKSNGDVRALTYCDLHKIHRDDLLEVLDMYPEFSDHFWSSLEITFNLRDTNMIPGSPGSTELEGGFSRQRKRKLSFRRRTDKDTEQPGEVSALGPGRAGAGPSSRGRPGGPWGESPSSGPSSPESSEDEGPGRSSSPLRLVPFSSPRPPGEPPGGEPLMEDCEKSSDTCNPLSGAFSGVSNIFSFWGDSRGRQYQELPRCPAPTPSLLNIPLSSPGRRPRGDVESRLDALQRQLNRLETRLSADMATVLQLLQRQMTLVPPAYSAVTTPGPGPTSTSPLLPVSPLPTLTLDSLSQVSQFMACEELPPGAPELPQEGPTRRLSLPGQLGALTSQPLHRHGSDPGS

Row | SMILES | hERG current change (%, negative = inhibition) at 10uM
1 | Cc1cc(NC(=O)/C=C/c2ccc(Br)cc2)no1 | 12.6%
2 | Cc1ccc(C2(C)NC(=O)N(CC(=O)NCc3cccs3)C2=O)cc1 (stereo not shown) | 7.71%
3 | CC(C)(C)c1cc(O)c(C(C)(C)C)cc1O | -12.4%
4 | N#CC(=C=[N-])c1nc2ccccc2nc1-[n+]1ccccc1 | -2.11%
5 | Clc1cccc(Cl)c1COc1ccccn1 | 1.76%
6 | COc1cc(NC(=O)CSc2nnc3c(C)cc4c(C)ccc(C)c4n23)c(C(=O)O)cc1OC | 27.1%
7 | Cc1ccc(C(=O)Nc2ccc(C(=O)N3CCCCC3C)cc2)cc1 (stereo not shown) | -38%
8 | CCOc1ccc(CN(Cc2ccco2)C(c2cccs2)c2nnnn2C(C)(C)C)cc1 (stereo not shown) | -1.63%
9 | COCCCN1C(=O)C(=O)/C(=C(/O)c2ccc(S(=O)(=O)N3CCCCC3)cc2)C1c1ccc(O)cc1 (stereo not shown) | 16.2%
10 | COc1ccc(C)cc1S(=O)(=O)Nc1cccc(Cl)c1Cl | -0.351%
11 | COC(=O)c1sc(NC(=O)Cc2cccs2)nc1C | 2.88%
12 | CCc1ccccc1N1CC(C(=O)O)CC1=O (stereo not shown) | -11.2%
13 | CN1CCN(c2nc3c(c(=O)[nH]2)CCC3)CC1 | 26.7%
14 | OCCCNCc1cccc2ccccc12 | -15.8%
15 | Cn1c(=O)n(C)c2cc(/C=N/NC(=S)NCc3ccccc3)ccc21 | -10.3%
16 | CC(C)(C)NC(=O)C(c1ccc(O)cc1)N(C(=O)CCC(=O)Nc1nccs1)c1cccc(F)c1 (stereo not shown) | 16.8%
17 | COCCn1c(C)cc(C(=O)Cn2nc(C(=O)O)c3ccccc3c2=O)c1C | -3.4%
18 | O=C(CCCCCN1C(=O)c2ccccc2C1=O)Nc1ccccc1F | -13.3%
19 | Cc1ccc(N2CCN(c3cc(C)nc4nc(C)nn34)CC2)c(C)c1 | -72.6%
20 | O=C(COC(=O)CCN1C(=O)c2ccccc2C1=O)Nc1ccccc1[N+](=O)[O-] | 14.6%
21 | CCOc1ccc(CN2CCN(CC3=Cc4cccc(OC)c4OC3)CC2CCO)cc1 (stereo not shown) | -83.4%
22 | COC(=O)c1ccc(/C=C(/NC(=O)c2ccccc2)C(=O)N2CCOCC2)cc1 | -9.15%

Row | SMILES | hERG current change (%, negative = inhibition) at 10uM
23 | Cc1ccc(NC(=O)COC(=O)C2C3CC4OC(=O)C2C4C3)cc1 (stereo not shown) | -0.408%
24 | COc1ccc(NC(=O)c2sc3nc(-c4cccnc4)ccc3c2N)cc1OC | -22.3%
25 | OCCOc1cccc(CN2CCC(CO)(CCOc3ccccc3)CC2)c1 | -51.3%
26 | COCCCNC(=O)c1ccc(Cn2c(=O)c3ccccc3n(Cc3ccccc3C#N)c2=O)cc1 | -7.35%
27 | Cc1ccc(C(=O)NNC2CC(=O)N(c3ccc4c(c3)OCCO4)C2=O)cc1 (stereo not shown) | 1.14%
28 | O=C(CCn1cnnn1)N1CCCC(Nc2ccc(F)cc2)C1 (stereo not shown) | 3.2%
29 | CN(C)c1ccc(C2SCCN2C(=O)c2ccc([N+](=O)[O-])cc2)cc1 (stereo not shown) | -66.7%
30 | Cc1ccccc1N1CCN(Cc2cc3c(cc2[N+](=O)[O-])OCO3)CC1 | 8.1%
31 | CCOC(=O)Cn1c(=O)c(-c2cc(Br)ccc2N)nc2ccccc21 | 7.52%
32 | Cn1c(Cn2c(=O)sc3ccccc32)nnc1SCc1ccccc1 | -10.1%
33 | CC1(c2cccc(Br)c2)NC(=O)N(CC(=O)N2CCc3ccccc32)C1=O (stereo not shown) | -9.1%
34 | COc1ccc(S(=O)(=O)N2CCC3(CC2)CC(=O)c2ccccc2O3)cc1C | -3.6%
35 | O=C(NCC1CCCO1)c1ccc(OC2CCN(C(=O)C3CC3)CC2)cc1 (stereo not shown) | 12.7%
36 | CCOCc1nc(C)c(Cl)c(NS(=O)(=O)c2ccc(N)cc2)n1 | 13.9%
37 | COc1ccc(CCCc2nnc(SCC(=O)Nc3cc(C)c(C)cc3Br)o2)cc1 | -9.94%
38 | Cl.c1ccc(CN2CCN(c3nc(NCc4ccco4)c4ccccc4n3)CC2)cc1 | -68.3%
39 | COCCCNC(=O)C1CCC(CNS(=O)(=O)c2ccc(Cl)cc2)CC1 (stereo not shown) | 14.4%
40 | COc1ccc(C(=O)Nc2ccc(Cl)c(S(=O)(=O)Nc3ccccc3OC)c2)cc1 | -14.2%
41 | COc1ccc2c(c1)O/C(=C\c1ccccc1O)C2=O | 27.3%
42 | O=C(Nc1ccccn1)C1CCN(S(=O)(=O)c2ccc(Cl)cc2)CC1 | -7.33%
43 | Cl.OC1(CN2CCOCC2)C2CC3CC(C2)CC1C3 (stereo not shown) | 11%
